According to the supplement of paper PMC4967469:
A lower IC50 marks a more sensitive line; where the fit passes the top or lowest dose, that dose stands as a limit. For AUC the same curve is integrated over the 256-fold range of doses and scaled to a fraction; values near 1 show little effect. For some assays here: The top dose, if marked as inferred, is not printed in the source and was worked back from the curve model. For some assays here: An entry number marks a drug with two screens in the source, which often give different values.

Columns and labels:
Assay in all cases: Viability of human cancer cell lines after 72 h of drug (GDSC screen)
QS11 = compound: OC[C@H](Cc1ccccc1)Nc1nc(Oc2ccc3c(c2)CCC3)nc2c1ncn2Cc1ccc(-c2ccccc2)cc1 [QS11]; settings: top dose 10.24 µM
Experimental: (§1)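 Human cancer cell lines in 384-well plates, medium with 10% serum, drug for 72 h over a 256-fold dose range (nine 2-fold or five 4-fold steps up to the top dose). Adherent lines were fixed and stained with the nucleic acid dye Syto60, suspension lines read with resazurin; signal relative to control wells, capped at 0 and 100%. One two-parameter sigmoid per drug and line, fitted in a mixed model over all curves with the slope shared within a line.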

RDEA119 = compound: COc1cc(F)c(F)c(Nc2ccc(I)cc2F)c1NS(=O)(=O)C1(C[C@H](O)CO)CC1 [RDEA119]; settings: top dose 5 µM, top dose inferred
Experimental: as §1

JNK-9L = compound: Fc1cc(-c2ccnc(Nc3ccc(-n4cnc(N5CCOCC5)n4)cc3)n2)cc(N2CCOCC2)c1 [JNK-9L]; settings: top dose 5.12 µM; top dose inferred
Experimental: as §1

AC220 = compound: CC(C)(C)c1cc(NC(=O)Nc2ccc(-c3cn4c(n3)sc3cc(OCCN5CCOCC5)ccc34)cc2)no1 [AC220]; settings: top dose 1.024 µM; top dose inferred
Experimental: as §1

5-Fluorouracil = compound: O=c1[nH]cc(F)c(=O)[nH]1 [5-Fluorouracil]; settings: top dose 32 µM; top dose inferred
Experimental: as §1

CUDC-101 = compound: C#Cc1cccc(Nc2ncnc3cc(OC)c(OCCCCCCC(=O)NO)cc23)c1 [CUDC-101]; settings: top dose 5.12 µM; top dose inferred
Experimental: as §1

OSU-03012 = compound: NCC(=O)Nc1ccc(-n2nc(C(F)(F)F)cc2-c2ccc3c(ccc4ccccc43)c2)cc1 [OSU-03012]; settings: top dose 16 µM; top dose inferred
Experimental: as §1

Row | Cell Line | AUC (QS11) | IC50 (QS11) | AUC (RDEA119; screen: GDSC drug entry 1526) | IC50 (RDEA119; screen: GDSC drug entry 1526) | AUC (JNK-9L) | IC50 (JNK-9L) | AUC (AC220) | IC50 (AC220) | AUC (5-Fluorouracil) | IC50 (5-Fluorouracil) | AUC (CUDC-101) | IC50 (CUDC-101) | AUC (OSU-03012) | IC50 (OSU-03012) | AUC (RDEA119; screen: GDSC drug entry 1014) | IC50 (RDEA119; screen: GDSC drug entry 1014)
1 | PCI-38 (head and neck, adherent) | 0.987 | > 10200 nM | 0.821 | 2920 nM | 0.498 | 317 nM | 0.976 | > 1020 nM | 0.754 | 10900 nM | 0.613 | 657 nM | 0.878 | > 16000 nM | – | –
2 | PE/CA-PJ15 (head and neck, adherent) | 0.986 | > 10200 nM | 0.657 | 889 nM | 0.875 | > 5120 nM | 0.985 | > 1020 nM | 0.908 | > 32000 nM | 0.581 | 545 nM | 0.835 | 11800 nM | 0.672 | 981 nM
3 | PFSK-1 (medulloblastoma, adherent) | 0.957 | > 10200 nM | – | – | 0.638 | 788 nM | 0.984 | > 1020 nM | 0.893 | > 32000 nM | 0.64 | 801 nM | 0.841 | 12100 nM | 0.977 | > 5000 nM
4 | PL4 (pancreas, adherent) | 0.971 | > 10200 nM | 0.684 | 1040 nM | 0.615 | 672 nM | 0.987 | > 1020 nM | 0.96 | > 32000 nM | 0.763 | 1910 nM | 0.831 | 10700 nM | 0.728 | 1420 nM
5 | PL18 (pancreas, adherent) | 0.949 | > 10200 nM | 0.985 | > 5000 nM | 0.698 | 1150 nM | 0.988 | > 1020 nM | 0.924 | > 32000 nM | 0.647 | 815 nM | 0.74 | 4840 nM | – | –
6 | PSN1 (pancreas, adherent) | 0.767 | 3230 nM | 0.497 | 306 nM | 0.795 | 1970 nM | 0.991 | > 1020 nM | 0.349 | 824 nM | 0.432 | 215 nM | 0.505 | 1030 nM | 0.435 | 215 nM
7 | QIMR-WIL (acute myeloid leukaemia, suspension) | 0.765 | 3640 nM | 0.936 | > 5000 nM | 0.492 | 304 nM | 0.965 | > 1020 nM | 0.542 | 2600 nM | 0.268 | 71.8 nM | 0.559 | 1440 nM | 0.982 | > 5000 nM
8 | RC-K8 (B-cell lymphoma, suspension) | 0.992 | > 10200 nM | 0.992 | > 5000 nM | 0.687 | 983 nM | 0.993 | > 1020 nM | 0.853 | 20000 nM | 0.708 | 1120 nM | 0.863 | 11000 nM | 0.993 | > 5000 nM
9 | RCC10RGB (kidney, adherent) | 0.971 | > 10200 nM | – | – | 0.648 | 1230 nM | 0.972 | > 1020 nM | 0.874 | > 32000 nM | 0.846 | > 5120 nM | 0.76 | 12300 nM | 0.852 | > 5000 nM
10 | RCM-1 (large intestine, adherent) | 0.98 | > 10200 nM | 0.685 | 1160 nM | 0.642 | 866 nM | 0.985 | > 1020 nM | 0.937 | > 32000 nM | 0.795 | 2960 nM | 0.866 | > 16000 nM | 0.416 | 175 nM
11 | RD (rhabdomyosarcoma, adherent) | 0.923 | > 10200 nM | 0.568 | 490 nM | 0.652 | 884 nM | 0.984 | > 1020 nM | 0.863 | > 32000 nM | 0.576 | 527 nM | 0.738 | 5170 nM | – | –
12 | RERF-GC-1B (stomach, adherent) | 0.871 | > 10200 nM | 0.837 | 3910 nM | 0.771 | 2200 nM | 0.983 | > 1020 nM | 0.831 | 23700 nM | 0.935 | > 5120 nM | 0.788 | 7940 nM | – | –
13 | RERF-LC-KJ (lung adenocarcinoma, adherent) | 0.848 | 8000 nM | 0.912 | > 5000 nM | 0.691 | 1120 nM | 0.967 | > 1020 nM | 0.971 | > 32000 nM | 0.813 | 2870 nM | 0.824 | 9880 nM | 0.899 | > 5000 nM
14 | RERF-LC-MS (lung adenocarcinoma, adherent) | 0.986 | > 10200 nM | 0.773 | 2010 nM | 0.635 | 761 nM | 0.987 | > 1020 nM | 0.974 | > 32000 nM | 0.824 | 3160 nM | 0.854 | 13200 nM | 0.701 | 1170 nM
15 | RERF-LC-Sq1 (lung squamous cell carcinoma, adherent) | 0.979 | > 10200 nM | 0.719 | 1780 nM | 0.904 | > 5120 nM | 0.978 | > 1020 nM | 0.899 | > 32000 nM | 0.685 | 1350 nM | 0.859 | > 16000 nM | 0.757 | 2510 nM
16 | RF-48 (stomach, adherent) | 0.894 | > 10200 nM | 0.973 | > 5000 nM | 0.474 | 269 nM | 0.979 | > 1020 nM | 0.592 | 3700 nM | 0.279 | 69.4 nM | 0.679 | 3380 nM | 0.965 | > 5000 nM
17 | RH-1 (rhabdomyosarcoma, adherent) | 0.826 | 4880 nM | 0.982 | > 5000 nM | 0.492 | 305 nM | 0.989 | > 1020 nM | 0.371 | 942 nM | 0.314 | 107 nM | 0.591 | 1700 nM | 0.979 | > 5000 nM
